Test results published in the RNAGym collection of RNA variant scans (doi:10.1093/nar/gkz1192).
The source gives no read counts; variants with many changes may rest on few reads.

B1: CPEB3 Ribozyme (parent)
chain: UAACAGGGGGCCACAGCAGAAGCGUUCACGUCGCAGCCCCUGUCAGAUUCUGGUGAAUCUGCGAAUUCUGCUGUAUAUCUC

Variants of: B1
Test: self-cleavage, relative activity (ratio to wild type); higher = more cleavage; in vitro, sequencing
How it was run: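 Libraries of CPEB3 self-cleaving ribozyme mutants came from rounds of error-prone PCR and carried barcodes, which DNA sequencing matched to variants. In vitro transcription used T7 RNA polymerase at 37°C for 5 hours, with a further 15 min in DNase I before EDTA stopped the reaction; the ribozymes cleaved during both steps. The RNA was reverse transcribed with template switching and sequenced on Illumina. Relative activity is the cleaved/total read fraction of a variant divided by that of the unmutated ribozyme, averaged over three batches with at least 5 reads.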

Variant	self-cleavage
UAACAGGGGGCCAUAGCAGAAGCGUUCACGCCGCAGCCCCUGUCAGAUUCUGGUGAAUCUGCGAGUUCUGCUGUAUAUCUC	0.31
UAACAGGGGGCCAUAGCAGAAGCGUUCACGUCGCAGCCCCUGUCAGAUUCUGGUGAAUCAGCGAACUCUGCUGUAUAUCUC	0.14
UAACAGGGGGCCAUAGCAGAAGCGUUCACGUCGCAGCGCAUAUCAGAUUCUGAUGAGCCUGCGAAUUCUGCUGUAUAUCUC	0.11
UAACAGGGGGCCAUAGCAGAAGUGUUCACGUCGCAGCCCCUGUCAUACUCUGGUGAAUCCGCGAAUACUGCUGUGUAUCUC	0.05
UAACAGGGGGCCAUAGCAGAAGCGUUCACGCCGCAGCCCCUGCCAGAUUCUGGUGAAUCUGCGAAUUCUACUGUAUAUCUC	0.19
UAACAGGGGGCCAUAGCAGAAGCGUUCACGUCGCUGCCCCCGUCAGAUUCUGGUGAAACUGCGAAUUCUGCUGUAUAUCUC	0.18
UAACAGGGGGCCAUAGCAGAAGCGUUCACGUCGCAGCCCCUUUCAGAUUCUGGUGAGUCUGCGAAUUCUGCUGUAUAUCUC	0.21
UAACAGGGGGCCAUAGCAGAAGCGUUCACGUCGCAGCCCCUGACAGAUUCCGGUGAAUCUGCGAAUUCUGCUGUAUAUCUC	1
UAACAGGGGGCCACCGCGGGAGCGUUCACGUCGCAGCCCCUGUCAGAUUCUGGUGAAUCUGCGAAUUCUGCUGUAUAUCUC	0.06
UAACAGGGGGCCAUAGCAGAAGCGUUCACGUCGCAGCCCCUGUCAGAUUCUGGUGAGUCUGCGAAUUCUGCUGUAUAUCCC	1.23
UAACAGGGGGCCAUAGCAGAAGCGUUCACGUCGCAGCCCCUGUCUGAUUCUGGUGGAUCUGCGAAUUCCGCUGUAUAUCUC	0.11
UAACAGGGGGCCAUAGCAGAAGCGUUCACGUCGCAGCCCCUGUCAGAUUCUGGUGAAUCUGCGAAUUCGGCCGUAAAUCUC	0.33
UAACAGGGGGCCAUAGCAGAAGCGUUCACGUCGCAGCCCCUGUCUGAUUCUGGUGAAUCUGCGAAAUCUGCUGUAUAUCUC	0.18
UAACAGGGGGCCAUAGCAGAAGCGUUCACGACGCAGCCCCUGUCAGAUUCUGGUGUAUCUGCGGAUUCUGCUGUAUAUCUC	0.28
UAACAGGGGGCCACCGCGGAAGCGUUCACGUCGCAGCCCUUGUCAGAUUCUGGUGAAUCUGCGAAUUCUGCUGUAUAUCUC	0.24
UAACAGGGGGCCAUAGCAGAAGCGUUCACGUCGCAGCCCCUGUCAGAUUCCGGUGAAUCUGCGAAUUCUGCGGUAUAUCUC	1.15
UAACAGGGGGCCAUAGCAGAAGCGUUCAUGUCGCAGCCCCCGUCAGAUUCUGGCGAAUCUGCGGAUUCUGCUGUAUAUCUC	0.26
UAACAGGGGGCCAUAGCACAAGCGUUCACGUCGCAGCCCCUGUCAGAUUCUGGUGAAUCUGCGAAUUCUGCUGUAUAACUC	0.37
UAACAGGGGGCCAUAGCAGAAGCGCCCACGUCGCAGCCCCUGUCAGAUUCUGGUGAAUCAGCGAAUUCUGCUGUAUAUCUC	0.26
UAACAGGGGGCCAUACCAGAAGCGUUCACGUCGCAGCCCCUGUCAGAUUCUGGUGGAUCUGCGAAUUCUGCCGUAUACCUC	0.29
UAACAGGGGGCCAUAGCAGAAGCGUUCACGUCGCAGCCCCUGCCAGAUUCUGGUGAUCCUGCGAAUUCUGCUGUAUAUCUC	0.12
UAACAGGGGGCCAUAGCAGAAGCGUUCACGUCGCAGCCCCAGUCAGAUCCCGGUGAACCUGCGAAUUCUGCUGUAUAUCUC	0.06
UAACAGGGGGCCAUAGCAGAAGCGAUCACGUCGCAGCCCCUGUCAGAUUCUGGUGAAUCUGCGAAUUCUGCUGGAUAUCUU	0.04

Variant	self-cleavage
UAACAGGGGGCCAUAGCAGAAGCGUUCACGUCGCAGCCCCAGUCAGAUUCUGGUGAACCUGCGAAUUCUGCUGUAUAUCUC	0.08
UAACAGGGGGCCAUAUCAGAAGCGUUCACGUCGCACCCCCUGGCAGAUUCCGGUGAAUCCGCGAAUUCUGCUGUAUAUCUC	0.13
UAACAGGGGGCCAUAGCAGAAGCGUUCACGUCGCAGCCCCUGUCAGACUCUGGUGAAUCUGCGAAUUCAGCUGUAUAUCUC	0.24
UAACAGGGGGCCAUAGCAGAAGCGUUCACGUCGAAGCCCCUGUCAGAUUUUGGUGAAUCUGCGAAUUCUGCUGUAUAUCUC	0.29
UAACAGGGGGCCAUAGCAGAAGCGCUCACGACUCAGCCCCUGGCAUAUUCUGGUGAAUCUGCGAAUCCUGCUGUAUAUCUC	0.07
UAACAGGGGGCCAUAGCAGAAGCGUUCACGUCGCAGCCCCUGUCAGAUUCUGGUGAAUCUGCGAAUUCUGCUGUGUAUCCC	1.23
UAACAGGGGGCCAUAGCAGAAGCGUUCACGUCGCAGCCCCUGUCAGAUUCUGGCGAAUCUGCGGAUUCUGCUGUAUAUCCC	1.18
UAACAGGGGGCCAUAGCAGAAGCGUUCACGUCGCAGCCCCUGUCAGGUACUGGUGAAUCUGCGAGUUCUGCUGUAUAUCUC	0.13
UAACAGGGGGCCAUAGCAGAAGCGUUCACGUCGUAGCCCCUGUCAGACUCUGGCGAGUCUACGAAUUCUGCUGUAUAUCUC	0.23
UAACAGGGGGCCAUAGCAGAAGCGUUCACGUCGCAGCCCCUGUCAGAUUCUGGUGAAUCUGCGUUUUAUGCUGUAUAUCUC	0.23
UAACAGGGGGCCAUAGCAGAAGAGUUCACGUCGCAGCCCCUGUCUGAUUCUGGUGGAUCUGCGAAUUCUGCUGUAUAUCUC	0.08
UAACAGGGGGCCAUAGCAGAAGCGUUCACGUCGUAGCCCCUGUCAGAUUCUGGUGGAUCUGCGAAUUCUGCUAUUUAUCUC	0.61
UAACAGGGGGCCAUAGCAGAAGCGCUCACGUCGCAGCCCCAGUCAGAUUCUGGUGAAUCCGCGAAUUCUGCUGUAUAUCUC	0.13
UAACAGGGGGCCAUAGCAGAAGCGUUCACGUCGCAGCCCCCGUCAGAUUCUGGUGAAUCUGCGAAUUCCGCUGUAUAUCUC	0.46
UAACAGGGGGCCAUAGCAGAAGCGUUCACGUCGCAGCCCCUGUCAGAUUCUGGUGAAUCAGCGAACUCCGCUGUACAUCUC	0.14
UAACAGGGGGCCAUAGCAGAAGCGUUCACGUCGCAGCCCCUGUCAGAUUCUGGUGAGUCUGCGAAUUCUGCCGUAUAUCUC	1.16
UAACAGGGGGCCAUAGCAGAAGCGUUCACGUCGCAGCCCCCGUCAGAUUCUGGUGAAUCUGCGAAUUCUGCUGUACAUCUC	1.23
UAACAGGGGGCCAUAGCAGAAGCGUUCACGUCGCAGCCCCUGUCAGACUCCGGUGAAUCUGCGAAUUCUGCAGUAUAUCUC	0.16
UAACAGGGGGCCAUAGCAAAAGCGUUCACGUCGCAGCCCCCGUCAGAUUCUGGUGAAUCUGCGAAUUCUGCUGUAUAUCUC	0.2
UAACAGGGGGCCAUAGCAGAAGCGUUCACGCCGCAGCCCCUGUCAGAUCCUGGUGAAUCUGCGAAUUCUGCUGUAUAUCUC	0.98
UAACAGGGGGCCAUAGCAGAAGCGUACACGCCGCAGCCCCUGUCAGAUUCUGGUGAAUCUGCGAAUUCUGCUGUAUAUCUC	0.67
UAACAGGGGGCCAUAGCAGAAGCGUUCACGUUGCAGCCCCUGCCAGAUUCUGGUGAAUCUGCGAAUUCUGCUGUAUAUCUC	0.15
UAACAGGGGGCCAUAGCAGAAGCGCUCACGUCGCAGCCCCUGUCAGAUUCUGGUGAAUCUGCGAGUUCUGCUGUUUAUCUC	0.07

Variant	self-cleavage
UAACAGGGGGCCAUAGCAGAAGCGUUCACGUCGCAGCCCCUGUCAGAUUCAGGUGAUUCUGCGGAUUCUGCUGUAUAUUUC	0.72
UAACAGGGGGCCAUAGCAGAAGCGUUCACGUCGCGGCCCCUGCCAGAUUCUGGUGAAUCUGAGAAUUCUGCUGUAUAUAUC	0.72
UAACAGGGGGCCAUAGCAGAAGCGUUCACGUCGCAGCCCCUGUCGAAUUCUGGUGAAUCUGCGAAUCCCGCUGUAUAUCUC	0.16
UAACAGGGGGCCAUAGCAGAAGCGUUCACGCCGCAGCCCCUGUCAGAUUCUGGUGAAUCUGCGUAUUCUGCUGUAUAUCUC	0.25
UAACAGGGGGCCAUAGCAGAAGCGUUCACGUCGCAGCCCCAGUCACAUUCUGGUGAAUCUGCGAAUUCUGCUGUAUACCUC	0.13
UAACAGGGGGCCAUAGCAGAAGCGUCCACGUCGCAGCCCCUGUCAGACUCUGGUGGAUCUGCGAAUUCUGCUGUAGGUCUC	0.19
UAACAGGGGGCCAUAGCAGAAGCGUUCACGUCGCAGCCACUGUCAGAUUCUGGCGAAUCGGCGAAUUCUGCUGUAUAUCCC	0.11
UAACAGGGGGCCAUAGCAGAAGCGUUCACGUCGCAGCCCUUGUUAGAUUCUGGUGAAUCUGCGAAUUCUGCUGUAUACCUC	0.06
UAACAGGGGGCCAUAGCAGAAGCGUUCACGUCGCAGCCCCUGUCAGAUUCUGGCGAAUCUGCGAAUCCUGCUGUAUAUCUC	0.37
UAACAGGGGGCCAUAGCAGAAGCGUUAACGUCGCAGCCCCUGUCAGAUUCUGGUGAAUCUGCGAAUCCUGCUGUAUAUCUC	0.1
UAACAGGGGGCCAUAGCAGAAGCGUUCACGUCGCAGCCCCUGUCAGAUACUGGUGAAUCCGCGAAUUCUGCUGUAUAUCUC	0.24
UAACAGGGGGCCAUAGCAGAAGCGUUCACGUCGCAGCCCCUGCCAUAUUCUGGUGAAUCUGCGAAUUCUGCUGUAUGUCUC	0.1
UAACAGGGGGCCAUAGCACAAGCGUUCACGUCGCAGCCCCUGUCAGAUUCAGGUGAAUCUGCGAAUUCUGCUGUAUAACCC	0.12
UAACAGGGGGCCACCGCGGAAGCGUUCACGUCGCAGCCCCUGUCAGAUCCUGGUGAAUCUGCGAAUUCUGCUGUAUAUCCC	0.1
UAACAGGGGGCCAUAGCAGAAGCGUUCACGUCGCAGCCACCGUCAGAUUCUGGUGAAACUGCGAAUUCUGCUGCAUAUCUC	0.15
UAACAGGGGGCCAUAGCAGAAGCAUUCACGUCGCAGCUCCCGUCAGAUUCUGGUGAAUCCGCGAAUUCUGCUGUAUAUCUC	0.14
UAACAGGGGGCCAUAGCAGAAGCGUUCACGUCGCAGCCCCUGUUAGAUUCUGGUGAGUCUGCGAAUUCUGCUGUAUAUCUC	0.18
UAACAGGGGGCCAUAGUAGAAGCGUUCACGCCGCUGCCCCUGUCAGAUUCUGGUGAAUCUGCGAAUUCUGCUGUAUAUCUC	0.09
UAACAGGGGGCCAUAGCAGAAGCGUUCACGUCGCAGCCCCUGUCAGAUUCUGGUGUAUCAGCGAAUUCUGCUGCAUAUCUC	0.24
UAACAGGGGGCCAUAGCAGAAGCGCUCUCGUAGCAGCCCCUGUCAGAAUCUGGUGAAUCUGCGAAUUCUGCUGUAUAUCUC	0.41
UAACAGGGGGCCAUAGCAGAAGCGCUCACGUCGCAGCCCCUGUUAGAUUCUGGUGAAUCUGCGAAUUCUGCUCUAUAUCUC	0.02
UAACAGGGGGCCAUAGCAGAAGCGUUCACGUCACAGCCCCUGUCAGAUUCUGGUGAGUCUGCGAAUUCUGCUGUAUAUCUC	0.35
